# Results taken from the supplement of paper PMC12217912.
# Some of the results follow. Sequences were assembled here from the parent chain. Inactive controls read about 0.05.
# B1: TEV protease; numbered along this chain (parent)
# chain: MGESLFKGPRDYNPISSSICHLTNESDGHTTSLYGIGFGPFIITNKHLFRRNNGTLVVQSLHGVFKVKDTTTLQQHLVDGRDMIIIRMPKDFPPFPQKLKFREPQREERICLVTTNFQTKSMSSMVSDTSCTFPSGDGIFWKHWIQTKDGQCGSPLVSTRDGFIVGIHSASNFTNTNNYFTSVPKNFMELLTNQEAQQWVSGWRLNADSVLWGGHKVFMVKPEEPFQPVKEATQL
# Variants of: B1
# Assay: raw area under fraction-flipped curve 0-4 h after induction (AUC4h, not background-subtracted), DNA-recorder readout of cleavage of the substrate (dimensionless); higher = more cleavage of the substrate by the protease variant
# Details: temperature: 34 °C; time window: 0-4 h after rhamnose induction
# Description: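 In vivo DNA recorder in E. coli TOP10(DE3) ΔrhaA at 34 °C. Each TEVp single-site mutant (parent TEVp 0) is paired with a single-site variant of the 7-mer TEVs (canonical ENLYFQ|S). The substrate sits between flexible linkers in a Bxb1-sfGFP-TEVs-SsrA fusion, so cleavage stabilises Bxb1 and speeds flipping of a recombination array, read by NGS. The value is the raw area under the fraction-flipped curve over 0-4 h after rhamnose induction (AUC4h), with ≥20 reads per time point. It is not background-subtracted; inactive controls average about 0.047.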
# 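Note: Bxb1 expression induced with 0.2% (w/v) L-rhamnose at OD600 near 0.5, cultures sampled hourly, flipped fraction per protease–substrate barcode pair counted by paired-end Illumina sequencing.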
Variant,area with substrate ENAYFQS,area with substrate ENDYFQS,area with substrate ENEYFQS,area with substrate ENFYFQS,area with substrate ENHYFQS,area with substrate ENNYFQS,area with substrate ENPYFQS,area with substrate ENRYFQS,area with substrate ENTYFQS,area with substrate ENVYFQS,area with substrate ENWYFQS,area with substrate ENKYFQS,area with substrate ENQYFQS,area with substrate ENSYFQS,area with substrate ENCYFQS,area with substrate ENGYFQS,area with substrate ENMYFQS,area with substrate ENYYFQS,area with substrate ENIYFQS
V78R,0.0678,0.0553,0.0617,0.0557,0.0494,0.0644,0.0475,0.04,0.0538,0.0418,0.0018,,,,,,,,
D79P,0.0673,0.0684,0.0619,,,,,,0.0637,,,0.063,0.0564,0.101,,,,,
R81S,0.0593,,0.0654,0.0622,,0.0606,0.0753,,0.0798,0.0965,0.0202,0.0583,0.0653,0.0636,0.0655,0.037,0.07,0.0585,
R81Y,0.0415,0.0649,0.0609,0.0511,0.0623,0.061,,,,,0.0616,,0.0625,0.0558,0.0621,0.0692,0.0852,0.0641,0.084
D82A,0.0393,,0.0652,,,,,,,,,,0.076,,,,0.0706,0.0525,
I84D,0.0598,0.0563,0.0473,0.05,,,0.0518,,0.0328,0.059,,0.0703,0.046,0.0513,0.0455,0.0561,0.0516,0.057,0.0533
I84R,0.0513,0.0602,0.0497,0.0688,,0.063,,,0.0661,0.0564,,,,,0.0892,,0.0637,,0.0595
I86L,0.0731,0.0558,,,0.0327,0.0529,,,,,,,0.0589,,,,,,
I86S,0.0553,0.0393,0.054,0.0511,,,,0.0513,0.0438,,,0.0377,0.0578,0.0592,0.0509,0.0741,0.0488,0.0354,0.0508
I86T,0.0491,,0.0799,,0.0278,0.0515,,0.0579,0.0522,,0.0445,0.0585,0.0439,0.068,0.0589,0.0637,,,
R87A,0.0609,,0.0571,0.0663,,0.0332,,0.065,0.0603,,,,0.057,,0.0535,,,,
R87C,0.0938,0.0579,0.0645,0.046,0.0589,0.0721,,,,,,,0.0432,,0.0718,,,,0.114
R87I,0.0633,0.0579,0.0549,0.0446,0.0641,0.0502,0.0654,0.0618,0.0631,0.0601,,,0.0443,0.0541,0.0653,0.0591,,0.0528,0.0872
R87S,0.0551,0.0566,0.0567,0.0522,0.0581,,,0.0506,0.0728,0.06,0.0504,0.0487,0.0589,0.0481,0.06,0.06,,,0.0666
R87Y,0.0369,0.0776,0.053,0.0391,,,,,0.0794,0.073,,,0.0716,0.0613,,0.0706,,,
P89M,0.0419,0.0621,0.0578,,0.0823,0.0479,0.0493,,0.0511,0.055,,,0.0617,,,0.0537,0.0843,0.0547,0.0791

Variant,area with substrate ENAYFQS,area with substrate ENDYFQS,area with substrate ENEYFQS,area with substrate ENFYFQS,area with substrate ENHYFQS,area with substrate ENNYFQS,area with substrate ENPYFQS,area with substrate ENRYFQS,area with substrate ENTYFQS,area with substrate ENVYFQS,area with substrate ENWYFQS,area with substrate ENKYFQS,area with substrate ENQYFQS,area with substrate ENSYFQS,area with substrate ENCYFQS,area with substrate ENGYFQS,area with substrate ENMYFQS,area with substrate ENYYFQS,area with substrate ENIYFQS
P89Q,0.0639,,0.059,0.0605,0.0603,0.0714,0.0518,0.0562,0.0575,0.0615,0.0476,,0.055,0.055,,0.0615,,,0.0628
K90N,0.0555,,,0.0554,,0.0596,0.0587,0.0926,0.0487,,,,0.064,,,,,0.0569,0.0894
K90P,0.0571,0.0744,0.0542,,0.0543,0.06,0.0584,0.0503,0.0755,0.0891,,,0.0688,0.0605,0.0677,,,,0.0913
K90R,0.0662,0.0586,,0.0642,,0.0544,,,,,,,,0.0633,,,,0.0564,
K90S,0.0678,0.0589,,0.0611,0.0684,,0.0762,0.0422,0.0672,0.0626,0.0293,,0.0698,0.079,0.0625,0.0666,,,0.113
D91I,0.0652,0.0586,,0.0647,,0.0707,0.0588,,,0.084,,0.0789,0.0626,0.0799,0.0583,,0.0735,,0.107
D91K,0.0584,0.058,0.0628,,,0.0584,0.0439,0.0626,,0.0631,,0.0527,0.0556,0.0565,0.0613,,,0.0662,
D91N,0.0367,0.0483,0.0697,,,,0.0293,0.0616,0.0564,0.0788,,0.066,0.072,0.0577,,,,,
F92D,0.0559,,0.0487,,,,0.0529,,0.0561,0.0601,,0.0559,0.0599,0.0426,0.0522,,,,
F92I,0.0666,0.0575,,0.0616,,,,,0.0598,0.0794,,,0.0607,0.0547,,0.0558,0.0941,0.0641,0.0946
P93V,0.0664,,0.0476,,,,0.0675,,,,,0.047,0.0427,0.0739,0.0672,0.0566,0.0909,,0.107
P94R,0.0524,0.067,0.0455,,,0.075,0.0608,0.052,0.0326,,0.0437,,0.046,,0.0669,0.0565,,,
P94S,0.0518,0.0774,,,,0.083,,,,0.0711,,,0.0616,0.0724,,,0.0757,,
F95C,0.04,0.056,0.118,0.0571,,0.0563,,,,0.0397,,0.0646,0.0602,0.0557,,,,,0.086
F95I,0.0439,0.0445,0.0539,,0.0518,,,,,,,,0.0587,0.0607,,0.0513,,0.0673,
F95K,0.0501,0.0481,0.0439,,,0.0589,,0.0516,0.0654,,0.0489,,0.0567,,,0.0533,,,
